Test results published in patent publication US4018775A, “5-Phenyl-thiazolidin-4-one derivatives” (Warner-Lambert Company, priority 1974, dated 1977).
Read-outs that look alike come from different tables or passages of the source.

Tested on: rats with liver damage caused by carbon tetrachloride
Details: daily for 4 days

Compound | period of narcosis, compound group with CCl4 liver damage (250 mg/kg i.g.) [min] | period of narcosis, compound group with CCl4 liver damage (200 mg/kg i.g.) [min] | further results
CCOC(=O)C=C1SC(c2ccccc2)(N2CCCCC2)C(=O)N1C (stereo not drawn) [Compound 1, ethyl 3-methyl-5-phenyl-5-N-piperidino-4-oxo-Δ^2,^α -thiazolidine-acetate] | 35.67 ± 13.76 |  | 
CCOC(=O)C=C1SC(CC)(c2ccccc2)C(=O)N1C (stereo not drawn) [Compound 3, ethyl 3-methyl-5-ethyl-5-phenyl-4-oxo-Δ^2,^α -thiazolidine-acetate] |  |  | period of narcosis, compound group with CCl4 liver damage (75 mg/kg i.g., only 4 animals per group): 31.67 ± 23.56 min
CCOC(=O)C=C1SC(c2ccccc2)(N(C)CCO)C(=O)N1CC (stereo not drawn) [Compound 5, Ethyl 3-ethyl-5-phenyl-5-(methyl-β-hydroxyethylamino)-4-oxo-Δ^2,^α -thiazolidine-acetate] |  | 36.58 ± 9.62 | 
CCOC(=O)C=C1SC(c2ccccc2)(N2CCCCC2)C(=O)N1CC (stereo not drawn) [Compound 4, Ethyl 3-ethyl-5-phenyl-5-N-piperidino-4-oxo-Δ^2,^α -thiazolidine-acetate] |  | 26.00 ± 5.20 | period of narcosis, compound group with CCl4 liver damage (100 mg/kg i.g.): 55.82 ± 21.91 min
CCOC(=O)C=C1SC(c2ccccc2)(N2CCCC2)C(=O)N1C (stereo not drawn) [Compound 2, ethyl 3-methyl-5-phenyl-5-N-pyrrolidino-4-oxo-Δ^2,^α -thiazolidine-acetate] | 34.83 ± 14.65 |  | 
